Assay results reported in the RNAGym collection of RNA variant scans (doi:10.7554/elife.90254).
Read counts are not given, so values of variants with three or more changes are uncertain.

B1: LINE1-mini (parent)
chain: GGCAGAGCUCAACACAGCGUGGCAAAGUGGCUGUGGCUAGACUGCC

Variants of: B1
Experiment: self-cleavage, relative activity (ratio to wild type); higher = more cleavage; in vitro, sequencing; the parent is a self-cleaving ribozyme

Row | Variant | self-cleavage
1 | G30U C31A G40C | 0.02
2 | G33A G40A C45G | 0.04
3 | U32A G36U C46A | 0.19
4 | G30A U32A G40A | 0.31
5 | U32C U38G C45G | 0.01
6 | C31U U32A C37U | 0.06
7 | U32C U38A G44C | 0.04
8 | U32G U38A U43C | 0.01
9 | G33C U34G C37U | 0.02
10 | C37U A41G C45G | 0.02
11 | C31A G33U G35A A39C U43C | 0.04
12 | G35A G36U U43G | 0.08
13 | G35A G36A C45A | 0.07
14 | G33C C42G G44C C46A | 0
15 | U34C G40U C45G | 0.02
16 | U34C G40U C45A | 0.09
17 | C31U U32G G40A | 0.02
18 | C31G A41G C45G | 0.01
19 | A39U G40U A41C | 0.14
20 | G30U C31A A39U C46G | 0.01
21 | C31A G36U U38A | 0.09
22 | G36C U38C G40A A41U C46G | 0.01
23 | C37U U43A G44A | 0.04
24 | U32G G35C G44U C46G | 0.05
25 | G30U C42A C46U | 0.05

Row | Variant | self-cleavage
26 | G30A G33A G35C | 0.01
27 | C37G A41G C42U G44A | 0.04
28 | U34A A39G G44A | 0.03
29 | U34A G36U U43C C45U | 0.03
30 | G30U U34A C45A | 0.03
31 | G40A C42U C45U | 0.16
32 | C31G G36A A39U G44C | 0.03
33 | G35U G40U C46G | 0.09
34 | C31A U43C C45G | 0
35 | U34G C37A G44A | 0.01
36 | G30C U43G C45G | 0.12
37 | G29U G36U U38C | 0.02
38 | G35A G36U C42U C46G | 0.05
39 | G40U C45U C46U | 0.19
40 | G30C U34C C37G | 0.04
41 | G33A G35C G36C U38C A39G | 0.02
42 | G30A U34C G36U U38G | 0.1
43 | G30A U38A U43G C46A | 0.01
44 | G35C C37A G40U | 0.04
45 | G36A U43A C45A | 0.08
46 | C37A U38A A39C | 0
47 | C31G U32G C37A | 0.02
48 | C31A C42U U43G | 0.1
49 | G35A C42G C45G | 0.04
50 | C31U A41G C45A C46A | 0.03

Row | Variant | self-cleavage
51 | G35A G36C A39G | 0.07
52 | U32A A39G C42A C45A | 0.03
53 | C37A C42A G44A C46U | 0.16
54 | G36U C37U U38G G40U | 0.02
55 | C31U G35A G36C C37U | 0.11
56 | U38C A39C U43A | 0.03
57 | U32G G33U C37U U38C | 0.03
58 | U34G G40C A41U C45A | 0.04
59 | C31U C42U C46A | 0.35
60 | G35C G36U C42U | 0.01
61 | G33A G40U U43A | 0.14
62 | G40A C45A C46U | 0.13
63 | G33A C37U A41U C46G | 0.07
64 | G36C A41U C42U | 0.13
65 | U32A G35U A41G | 0.05
66 | U32A G44C C46U | 0.06
67 | U34C C37U C45G C46G | 0.08
68 | U32C U34G C46G | 0
69 | C31A U38A C42U | 0.14
70 | C31G C37G U43A G44A | 0.01
71 | C31A G33U G40A | 0.08
72 | G30C U32G C37A A39G | 0.03
73 | G36U G40A C46U | 0.09
74 | C31A C45A C46G | 0.05
75 | C37U C42G C45G | 0

Row | Variant | self-cleavage
76 | U34A U38A C45U | 0.02
77 | U34G U43G C45G | 0.02
78 | G30U G35C C37A U38C | 0.04
79 | G33U U43C G44A | 0.05
80 | G33U G36U C37A C45U | 0.02
81 | G36U C42U G44U | 0.1
82 | G36U C37A A39C | 0.48
83 | C42U G44U C45U | 0.04
84 | G29U G35U U43A C45U | 0.19
85 | G29U G36A C42U | 0.19
86 | U34C C42A C46G | 0.05
87 | G30U G36A C46A | 0.37
88 | C31U G35U A39G | 0.02
89 | C42U G44C C45U | 0.13
90 | U32C A39U A41U G44U C46U | 0.01
91 | G30A U38A A39C | 0.46
92 | A39C C42G C45U | 0.07
93 | G33U U38G C42A U43C G44A | 0.02
94 | G33A U34A C37U | 0
95 | U32G A39G U43G | 0.02
96 | U34A G35C U38C | 0.01
97 | G36U C37A C46U | 0.12
98 | U38A U43C C46U | 0.15
99 | G33C C45A C46U | 0.06
100 | C31U G33U C42U | 0.11

Row | Variant | self-cleavage
101 | U34C A41G G44C | 0.06
102 | U34C G35A C46A | 0.1
103 | U34A G35U G36U U38G | 0.02
104 | C31U C37A C46U | 0.01
105 | C42A U43A G44C | 0.03
106 | G35A G36U C46A | 0.01
107 | U32A C42A C45A | 0.12
108 | A39U A41G C42G | 0.02
109 | G36U U38C U43G C45G | 0.03
110 | A41C C42U G44C | 0.03
111 | C31U C45U C46A | 0.1
112 | U34A U38A C42A | 0.04
113 | U34A A39G C45G | 0.03
114 | C31U G40U A41U C42U | 0.02
115 | G30A G33U C46G | 0.07
116 | G35C U38C C42G | 0.03
117 | G30U A39C A41G | 0.04
118 | G30U G35A A39U | 0.04
119 | C31G G33U G35A C45U | 0.05
120 | C31U C42A U43A | 0.05
121 | U32A G40C G44A C46U | 0.02
122 | G35U C42U C46U | 0.06
123 | U32A U34G G36C | 0.12
124 | U38A A41G U43A | 0.05
125 | G33A G35U C45G C46U | 0.04
